# Results published in the BET-seq Pho4 binding data (Le et al. 2018).
# The other results are listed elsewhere or left out. These are noisy estimates, calculated here from bound and input reads.
# Biological target: T1, Pho4 (S. cerevisiae) (UniProt P07270)
# T1 sequence: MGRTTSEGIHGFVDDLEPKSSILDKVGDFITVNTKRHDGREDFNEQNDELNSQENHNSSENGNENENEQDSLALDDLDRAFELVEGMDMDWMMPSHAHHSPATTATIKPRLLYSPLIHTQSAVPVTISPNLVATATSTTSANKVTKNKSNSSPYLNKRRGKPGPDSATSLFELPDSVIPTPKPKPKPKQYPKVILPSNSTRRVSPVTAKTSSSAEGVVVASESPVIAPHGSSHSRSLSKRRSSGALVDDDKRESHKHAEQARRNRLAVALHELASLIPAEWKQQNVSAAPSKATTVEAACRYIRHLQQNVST
# Assay: relative binding free energy (BET-seq); higher = weaker binding
# Details: reference: library average
row,Sequence,relative binding free energy [kcal/mol]
1,AGCGTCACGTGGTCTT,-0.03
2,TGTTGCACGTGTTCGG,-0.11
3,TATGTCACGTGTGTGG,0.07
4,GATTGCACGTGTCAGG,0.11
5,TATCACACGTGTTGTA,0.03
6,TTGGCCACGTGACGGT,0.1
7,TCGTTCACGTGGGATA,0.13
8,TCAGGCACGTGTTTAT,-0.14
9,TTAGTCACGTGTTCCG,0.12
10,GTTGTCACGTGATCTG,0.27
11,CGGTGCACGTGGGCCT,-0.12
12,AATATCACGTGTGGGT,0.05
13,AGGGGCACGTGCGGCA,-0.21
14,CGGTTCACGTGATGTC,0.41
15,AGTTTCACGTGTATCG,0.23
16,AGCAGCACGTGGTGGA,-0.08
17,AGTTACACGTGTCATG,0.16
18,GGGCTCACGTGATTTG,0.34
19,TTTTTCACGTGCATGA,0.27
20,TTGAACACGTGAATTT,0.35
21,TGTTGCACGTGTATCG,0
22,GGGTTCACGTGACATG,0.29
23,GCTGGCACGTGGAAGG,0.02
24,TGTAGCACGTGGTTCG,-0.15
25,CAATTCACGTGTGGCG,0.37
26,CGGTGCACGTGGGAAT,-0.01

row,Sequence,relative binding free energy [kcal/mol]
1,ATTGGCACGTGTTACG,-0.12
2,TGTGGCACGTGGTACT,-0.28
3,GTGTGCACGTGTTTTT,0.09
4,GGAAGCACGTGTGTGC,-0.05
5,ATAAGCACGTGATGGT,-0.01
6,GATTTCACGTGTGGCG,0.3
7,ATTAACACGTGTTCTG,-0.08
8,GGTTTCACGTGGTGCT,0.25
9,CGTTTCACGTGTTCGA,0.21
10,TTTAACACGTGGAGAG,0.03
11,TTAAGCACGTGATCGT,-0.08
12,TGTGACACGTGAAGAT,0.36
13,GTATACACGTGATAGG,0.16
14,ATTTTCACGTGTTTTT,0.23
15,CAGTGCACGTGATATG,0.18
16,ATACGCACGTGTGTGG,-0.17
17,GCAGGCACGTGTGAGA,0.05
18,GTATGCACGTGGTCGG,-0.1
19,GTTTTCACGTGGACGA,0.39
20,AGGGGCACGTGATGGC,-0.02
21,GGTAACACGTGTTAAT,0.06
22,GTCTGCACGTGGTAGT,0.14
23,AAGGTCACGTGGCAGT,-0.07
24,TGATACACGTGGGAGA,0.04
25,GGGCTCACGTGTCGGT,0.23
26,GAAGTCACGTGGGTGT,-0.01

row,Sequence,relative binding free energy [kcal/mol]
1,AATAACACGTGTAAGT,0.12
2,TATATCACGTGGATTG,0.14
3,ATGTGCACGTGTACGT,-0.03
4,CATGACACGTGTTGTT,0.1
5,GGGAGCACGTGGGAAG,0.02
6,GAGCTCACGTGGTGTA,0.23
7,ATCATCACGTGGTGGT,0.03
8,CTGGCCACGTGGAGGT,-0.06
9,TAGTTCACGTGCCGTT,0.36
10,TGGTCCACGTGGGATA,-0.07
11,TTGACCACGTGCAGGG,-0.02
12,TTGCTCACGTGTTGAT,0.17
13,GTGAGCACGTGGTTAT,-0.12
14,CGGGCCACGTGGGAGG,-0.25
15,TAAGGCACGTGCAGTT,-0.15
16,GTTGTCACGTGTAGAC,0.11
17,GCTTACACGTGTATTA,0.35
18,TCAATCACGTGGTGAG,0.24
19,CTGGGCACGTGGCATG,-0.26
20,CACGGCACGTGGAGGG,-0.17
21,TTTCTCACGTGTATGT,0.24
22,GTGGCCACGTGGGGAG,-0.06
23,CGGGTCACGTGAGTAA,0.39
24,GGATCCACGTGGGAGT,-0.04
25,GTTGGCACGTGTTTAA,-0.07
26,AAAGACACGTGTGGGA,0.09

row,Sequence,relative binding free energy [kcal/mol]
1,GGGGCCACGTGGGATG,0
2,CGTAACACGTGGCGGG,-0.06
3,GTTGTCACGTGTTGCA,0.31
4,TGTTTCACGTGGAGGC,0.32
5,GGCGTCACGTGAGGAT,0.34
6,CAAGGCACGTGGGTGA,-0.16
7,GTATTCACGTGGTACT,0.15
8,TAGATCACGTGCGTAG,0.12
9,ATAAACACGTGGGGTT,-0.08
10,AGGAACACGTGGTTAT,0.07
11,TCTATCACGTGGTGTA,-0.01
12,GTTATCACGTGAGGCT,0.43
13,GGAGGCACGTGAGAGG,0.19
14,GTTGCCACGTGTGTGC,-0.03
15,CAAGGCACGTGGGAAG,-0.05
16,ACGTTCACGTGTATAG,0.29
17,GCGCGCACGTGGGTTT,-0.15
18,AAGCGCACGTGGGTAG,-0.21
19,AGATACACGTGTTTGA,0.09
20,TGTGTCACGTGTCCAG,0.06
21,TAGAACACGTGGGAGT,0.04
22,GTTTTCACGTGAGGTA,0.35
23,GATGTCACGTGATATA,0.36
24,AGGGGCACGTGTCCGG,-0.1
25,TATTTCACGTGAATGG,0.41
26,GTTAGCACGTGGCGTT,-0.1

row,Sequence,relative binding free energy [kcal/mol]
1,ATTTGCACGTGCGTAG,0.05
2,TTACGCACGTGGAATG,-0.02
3,GATGTCACGTGGGTGC,0.03
4,CTTTTCACGTGCCGGG,0.46
5,GGGGTCACGTGAGGGA,0.39
6,TGAGGCACGTGGTGTT,-0.15
7,CTATGCACGTGGTTTT,-0.16
8,CTTATCACGTGTGTAG,-0.06
9,TGTTGCACGTGAGGTA,0.12
10,ATGATCACGTGGGGCG,-0.04
11,AAATGCACGTGTGGAA,0.14
12,AAGTTCACGTGGGGCT,0.12
13,TTCACCACGTGTGGTG,-0.05
14,TAATGCACGTGTTACT,0.02
15,TGGTGCACGTGCTCGG,-0.05
16,TAGGTCACGTGGTCGG,0.01
17,AGTCTCACGTGTGTGC,0.11
18,AGAGTCACGTGTTAGA,0.21
19,TGTGTCACGTGTTCTA,0.11
20,TATGGCACGTGCACGT,-0.13
21,ATGGACACGTGTGGCA,0.05
22,CGGCACACGTGAGGTG,0.24
23,CTCTGCACGTGGGTGG,-0.18
24,TCAGTCACGTGCTGGT,0.04
25,GGCCTCACGTGGTTTT,0.24
26,AGTGACACGTGCGTTT,-0.09

row,Sequence,relative binding free energy [kcal/mol]
1,CTTTGCACGTGGTGGA,-0.11
2,AGTGGCACGTGGGTAA,-0.19
3,GGTGTCACGTGAGCGA,0.37
4,AATTGCACGTGTTATG,0.03
5,TGGTTCACGTGAAAGA,0.43
6,TTGAGCACGTGCGCGT,-0.28
7,TTCTACACGTGAGTGT,0.34
8,TGAGGCACGTGAGCGT,0.02
9,TTCGGCACGTGTATGC,0.04
10,GCGGTCACGTGTGGCT,0.02
11,TTATGCACGTGGGTGT,-0.15
12,AATGTCACGTGGACGT,-0.01
13,GTTGGCACGTGCTAGA,-0.09
14,GGAGCCACGTGTAGTG,-0.01
15,CATGTCACGTGTATTG,0.12
16,TTCAGCACGTGAGGAG,0.16
17,AGACGCACGTGGTTTG,-0.23
18,TTTTACACGTGAGAAT,0.27
19,GGATGCACGTGAGATG,0.31
20,TATTACACGTGTTTTG,0.03
21,TGTAACACGTGGTCTA,-0.06
22,GTGTACACGTGCGTAG,0.03
23,AGCGTCACGTGGTCGG,-0.07
24,GGGCACACGTGATGTG,0.22
25,ATGTGCACGTGGCTTT,-0.13
26,GGAGGCACGTGATAAG,0.11

row,Sequence,relative binding free energy [kcal/mol]
1,TTGCGCACGTGTTGGT,-0.09
2,TGGCGCACGTGGGAAA,0.05
3,AAAATCACGTGGGTTA,0.06
4,TTTTACACGTGGTTTA,0.12
5,GATGTCACGTGAAGAT,0.19
6,ATTAGCACGTGGCGTT,-0.14
7,ACTAGCACGTGGTAAG,0.07
8,GTGGGCACGTGCCGAG,-0.2
9,ACCGGCACGTGGGGTA,-0.25
10,TTATACACGTGGTGGA,0.06
11,TAGTTCACGTGCGGGC,0.38
12,TGGAGCACGTGGGCAT,-0.24
13,ACTTACACGTGTGTTT,0.19
14,ATAGGCACGTGTTAGA,-0.12
15,GAGCGCACGTGTAGTT,-0.04
16,ATAGGCACGTGTAATT,-0.08
17,ATATTCACGTGTTACA,0.3
18,CTGTGCACGTGATAGT,-0.05
19,TTTGACACGTGGCATG,-0.08
20,GTAGACACGTGTTGGA,0.03
21,CAATGCACGTGTGGGA,0.06
22,TGGTTCACGTGGTTAC,0.26
23,ATAGTCACGTGGGGGT,-0.07
24,ATATCCACGTGTCGTG,0.16
25,ATCTGCACGTGGGGTT,-0.19
26,GTGGTCACGTGAGAAT,0.33

row,Sequence,relative binding free energy [kcal/mol]
1,GGTGGCACGTGCTTGA,-0.12
2,CGTGTCACGTGGTCTA,-0.03
3,TTTTACACGTGAGGTC,0.25
4,TTACGCACGTGTAGTA,-0.17
5,TGCGTCACGTGTGTGC,0.1
6,ATATACACGTGATGTA,0.05
7,TTACTCACGTGTAGGT,0.09
8,AGTAGCACGTGTGAGG,-0.1
9,GAAGACACGTGAGGTT,0.32
10,TGTGTCACGTGTCCTG,0.06
11,ACTAGCACGTGTAGTT,0.06
12,ATATTCACGTGTCTAT,0.11
13,TCGGGCACGTGCTAGG,-0.21
14,ATTGGCACGTGATGTC,0.09
15,TGTCTCACGTGGTGTC,0.13
16,GGACGCACGTGGGTGA,-0.28
17,AAGATCACGTGTTTTG,0.05
18,AAGTACACGTGGGGGC,-0.01
19,TCATTCACGTGTTGGG,0.29
20,AGTTACACGTGCGGTA,-0.07
21,CTAAGCACGTGTGTTA,0.13
22,ACAGACACGTGTTGGG,0.01
23,CATTACACGTGTTTTA,0.14
24,ATTAACACGTGAGTGG,0.12
25,GGCTGCACGTGCGAGT,0.04
26,GGGTCCACGTGATGTA,0.28

row,Sequence,relative binding free energy [kcal/mol]
1,TACATCACGTGTTTTA,0.06
2,CGTGGCACGTGTTTGC,-0.14
3,ATGAACACGTGTTATG,-0.05
4,CGGTGCACGTGTTTAT,0.07
5,GCCTGCACGTGAGTGT,0.31
6,ATTTGCACGTGATAGA,-0.01
7,GATTTCACGTGGAGGC,0.23
8,TGAGGCACGTGTGGTT,0.07
9,CGGCTCACGTGTTTGA,0.31
10,TGCGTCACGTGTTTAA,-0.06
11,CAGGGCACGTGTAGGA,-0.06
12,GGCTACACGTGTGTTT,0.12
13,TTATACACGTGGGTCT,-0.08
14,TTTGGCACGTGCTCAT,-0.12
15,GTGTACACGTGGTGAC,-0.04
16,GGATACACGTGTTAAG,0.32
17,GGGCGCACGTGGGGTA,-0.21
18,TTTAGCACGTGATTTG,0.1
19,GCTTACACGTGGTGTA,0.17
20,TTACTCACGTGATAGT,0.3
21,TATCACACGTGAGTGT,0.22
22,ATGTACACGTGGGTTG,-0.11
